Experimental data reported in the supplement of paper PMC10126150.
Sequences with one replicate were seen in a single cluster, so their values are uncertain.

Tested on: ATP
Experiment: switch fluorescence ratio, 500 uM ATP over buffer (Cy3 cluster intensity, sum of 5 cycles each) (fold (ratio)); higher = stronger signal-on switching upon ATP binding; sequences stand for … in TCGTCGGCAGCGTCAGATGTGTATAAGAGACAGTTTTTTTTTTTTTTTTTTTTTTTTT…TC
Settings: aptamer strand: ATP DNA aptamer (quencher-CACCTGGGGGAGTATTGCGGAGGAAGG + anchor), 100 nM annealed; ATP concentration: 500 uM; one replicate
In short: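 The quencher-labelled ATP aptamer, at 100 nM, was annealed to Cy3-labelled switching-strand clusters on a modified Illumina MiSeq flow-cell. The clusters were imaged in selection buffer, then after 15 min with 500 uM ATP at 22 °C, and this buffer/ATP cycle ran five times with NaOH stripping and re-annealing between runs. Per-cluster fluorescence ratios, summed target-cycle over summed buffer-cycle Cy3 intensity, were averaged per switch-domain sequence. Clusters outside 100-1000 RFU were excluded.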
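Further: ATP exposure 15 min at 22 °C before imaging.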

Sequence	switch fluorescence ratio
CATTTGACTG	0.992
CATTTGAGAA	0.999
CATTTGATTC	1.03
CATTTGGATA	1.01
CATTTTCATT	1.02
CATTTTGAGT	0.995
CATTTTGCTG	0.971
CATTTTGTCC	0.998
CCAAAACCGT	1.05
CCAAATCGAG	1.01
CCAAATTATC	1.02
CCAACAATCC	1.55
CCAACATGTA	1.03
CCAACTGCGG	1.01
CCAAGAGCTC	1.01
CCAAGCAGTA	1.82
CCAAGGAATC	1.88
CCAAGGAGTG	1.04
CCAAGGCTCG	0.989
CCAAGGGCAG	1.05
CCAAGGTGA	2.1
CCAAGTTTGA	0.981
CCAATCCGAT	1.04
CCAATGCTCT	1.63
CCACAAATGG	1.1
CCACATTAGG	1.04

Sequence	switch fluorescence ratio
CCACCAGTAG	2.2
CCACCCTTTG	1.06
CCACCGAGAC	4.57
CCACCGGTCT	1.12
CCACCTTGGT	1.06
CCACGACCCG	1.11
CCACGCGGCG	0.998
CCACGTTTTA	1.02
CCACTAAACC	1.61
CCACTAGCCA	1.2
CCACTATACT	2.4
CCACTCAAGT	1.01
CCAGAAACAT	1.01
CCAGAAGCGA	3.04
CCAGAAGTAT	1.02
CCAGACATAC	4.19
CCAGACGATC	1.09
CCAGAGTACT	1.07
CCAGATACCG	1.02
CCAGATACGT	1.09
CCAGATGCAG	1.03
CCAGATTATC	1.02
CCAGATTTAT	1.04
CCAGATTTTT	0.995
CCAGCAGAGC	1.15
CCAGCAGGCT	1.1

Sequence	switch fluorescence ratio
CCAGCTTGCG	0.949
CCAGGAATTG	1.02
CCAGGAGGGC	0.973
CCAGGATGGT	1.07
CCAGGCACTT	1
CCAGGCGGAG	1.04
CCAGGCTTGC	1.09
CCAGGGAGG	1.01
CCAGGGATGC	2.48
CCAGGGCCTT	0.964
CCAGGGGAAC	1.03
CCAGGGGG	1.12
CCAGGGTCGT	1.02
CCAGGGTTCT	1.01
CCAGGTCGAA	1.21
CCAGGTGCCC	3.41
CCAGGTTCTA	1.04
CCAGTAAGCT	1.02
CCAGTACTAT	0.999
CCAGTGCCAA	1.11
CCATAGACTT	1.02
CCATCAACGT	1.01
CCATCCCGGC	1.27
CCATCCGACT	1.16
CCATCGACCT	1.17
CCATCTGTA	1.03

Sequence	switch fluorescence ratio
CCATCTTGTC	0.965
CCATGAACCC	1.07
CCATGATTAT	0.966
CCATGGTGTT	1.63
CCATGTAGCC	1.08
CCATGTTTTG	0.969
CCATTACAGT	0.992
CCATTATGTC	0.956
CCATTCACTA	1.03
CCATTTCAGG	1.02
CCATTTCCGT	1.04
CCATTTGTAC	1.13
CCATTTTACC	1
CCCAAAACGC	1.21
CCCAAGATCT	1.05
CCCAAGCCAG	1
CCCAAGGTTG	2.07
CCCAATCCGG	1.06
CCCACGGGT	1.84
CCCACTCATT	1.06
CCCACTCTTA	1.03
CCCAGCCTCA	1.04
CCCAGCCTTC	1.49
CCCAGGGCCT	1.25
CCCAGGGGGC	1.6
CCCAGGTCTT	1.86

Sequence	switch fluorescence ratio
CCCAGTTGCG	1.08
CCCATCCCTT	1.04
CCCATCTTGA	1.02
CCCATGGGGA	1.06
CCCCACCGGC	1.02
CCCCAGCGGA	1.33
CCCCAGCTAA	3.23
CCCCATGGC	1.36
CCCCCCCCCT	2
CCCCCGGTCG	2.73
CCCCCTTACT	1.58
CCCCCTTGCG	1.69
CCCCGGGGAC	1.09
CCCCGGGTTC	1.49
CCCCTCATCT	1.01
CCCCTGCGCC	2.26
CCCCTGGACC	1.04
CCCCTTGACG	0.993
CCCGAAAGGC	1.74
CCCGAAATCG	1.35
CCCGAAGATG	1.07
CCCGAATACG	2.52
CCCGAGGAGA	1.03
CCCGAGTCAT	1.06
CCCGATGGGG	1.04
CCCGCGGAGT	1.13

Sequence	switch fluorescence ratio
CCCGGATGCT	1.11
CCCGGCACCG	1.03
CCCGGTAGCG	1.02
CCCGGTCGAC	1.03
CCCGGTGGAA	0.945
CCCGGTTTCT	0.993
CCCGTCTGTG	1.04
CCCGTTATGG	1.05
CCCGTTGAAA	1
CCCTACCGCG	1.88
CCCTACGTTT	1.02
CCCTATATTT	1.03
CCCTCAAGCA	2.75
CCCTCCGTG	3.31
CCCTCTGTTA	1.02
CCCTCTTAAT	0.977
CCCTGAATCG	0.998
CCCTGCCACC	1.61
CCCTGGGTTT	1.05
CCCTGGTCTT	0.974
CCCTGTTT	1.03
CCCTTAAACT	1.04
CCCTTAATGT	0.992
